SMILES strings stand for the structures. Screen size: about 45,000 compounds; about 65 (0.1%) were called active. Calls come from the whole dose curve; as a rule, active = well fitted activation curve with a large enough effect; inconclusive = small, poorly fitted or top-dose-only effect; inactive = no such curve, though single readings can be large or run the other way. This is one part of the list.

This experiment concerns the target Galactocerebrosidase (Homo sapiens) (UniProt P54803). Nature of the experiment: A Novel Cell-Based Assay to Identify Small Molecules for B -Galactocerebrosidase. Note: 0% is about no effect; nearly all actives have a fitted effect of over 65% in size. As to conditions: 145M-Twi-hGALC-G270D cells (Twitcher mouse brain line with human GALC G270D), HMU-beta-Gal fluorescence, 48 h; series mostly up to 57.5 µM; activation: at the top concentration. The essentials: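 Mutant human GALC (G270D), stably expressed in a Twitcher mouse brain cell line lacking endogenous GALC, is measured in live-treated cells via 6-hexadecanoylamino-4-methylumbelliferyl-β-galactoside hydrolysis (0.1 mM final, pH 5.2) with fluorescent detection.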
UniProt P54803, sequence (P54803 whole entry, looked up): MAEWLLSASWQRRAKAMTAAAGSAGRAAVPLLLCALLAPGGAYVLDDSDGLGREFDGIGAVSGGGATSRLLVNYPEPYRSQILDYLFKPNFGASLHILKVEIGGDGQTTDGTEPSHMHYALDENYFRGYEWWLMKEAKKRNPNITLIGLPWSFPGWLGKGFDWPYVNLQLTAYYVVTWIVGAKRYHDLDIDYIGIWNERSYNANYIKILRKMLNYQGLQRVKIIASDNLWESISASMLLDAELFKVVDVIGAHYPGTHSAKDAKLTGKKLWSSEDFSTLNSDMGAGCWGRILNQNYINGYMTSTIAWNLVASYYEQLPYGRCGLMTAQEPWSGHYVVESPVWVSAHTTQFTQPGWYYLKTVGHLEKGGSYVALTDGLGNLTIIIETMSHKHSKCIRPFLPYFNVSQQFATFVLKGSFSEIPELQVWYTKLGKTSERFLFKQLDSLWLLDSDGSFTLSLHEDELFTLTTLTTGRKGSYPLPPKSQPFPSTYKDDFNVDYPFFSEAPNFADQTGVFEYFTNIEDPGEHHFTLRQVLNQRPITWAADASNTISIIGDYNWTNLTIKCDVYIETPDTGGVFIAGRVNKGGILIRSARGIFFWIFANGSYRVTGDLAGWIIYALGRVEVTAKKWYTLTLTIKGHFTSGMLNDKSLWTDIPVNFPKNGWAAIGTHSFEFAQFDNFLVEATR
Regarding `CSc1ccc(CCNS(=O)(=O)c2ccc3c(c2)C(C)(C)C(=O)N3C)cc1`, the “activation” value was inactive: -1.82%.
The value for `O=c1c2ccccc2n2c(-c3ccc(Cl)cc3)nnc2n1CCc1ccccc1` was inactive: -24.2%; that for `CC(C)c1ccc(NC(=O)C(C)N(c2ccccc2)S(C)(=O)=O)cc1` (configuration not stated) was inactive: -0.254%.
In the case of `Cc1ccc(C(c2cccc(Br)c2)c2c(C)[nH]c3ccccc23)s1` (configuration not stated), the “activation” value is inactive: -16.9%.
In the case of `COc1cc(OC)cc(C(=O)N2CCN(C(=O)COc3ccccc3)CC2)c1`, the “activation” value was inactive: -10.2%.
`O=C(Cn1ncc2c3ccccc3n(Cc3ccc(F)cc3)c2c1=O)NCCC1=CCCCC1`: the “activation” value was inactive: -12.2%.
As for `Cc1ccc(C)c(CN2C(=O)c3ccccc3S(=O)(=O)c3ccc(C(=O)NCCCN4CCCC(C)C4)cc32)c1` (configuration not stated), the figure is inactive: -3.47%; as for `CCc1ccc(CNC(=O)CN2C(=O)CSc3c2c(C)nn3-c2ccccc2)cc1`, inactive: 16.2%; as for `Cc1cn2c(=O)cc(COC(=O)c3cccc(NC(=O)c4ccccc4Cl)c3)nc2s1`, inactive: -9.23%.
The value for `Cc1ccc(CNc2ncnc3c2nnn3C)cc1` was inactive: -12.7%; that for `Cc1nn(C(=O)c2ccc(Cl)cc2)c(C)c1S(=O)(=O)N1CCOCC1` was inactive: -10.3%; that for `CCC(CC)c1nn2c(=O)cc(COc3ccc(NC(=O)c4ccc(C)cc4)cc3)nc2s1` was inactive: -12.9%.
Turning to `Cc1c(C(=O)Nc2ccc(C(C)C)cc2)sc2nc3n(c(=O)c12)CCC3`, the “activation” value is inactive: -54.2%.
Consider `CN(C)CCNc1ncnc2c1cnn2-c1cccc(Cl)c1`, for which the “activation” value is inactive: -4.72%.
The value for `CN(C)c1ccc(C(CNC(=O)c2ccccc2C(F)(F)F)N2CCOCC2)cc1` (configuration not stated) was inactive: -16.7%; that for `NC1CCN(c2nc3c(cc2F)c(=O)c(C(=O)O)cn3-c2ccc(F)cc2F)C1` (configuration not stated) was inactive: -22.8%; that for `CCCCSc1nnc2c(n1)OC(c1ccc(Br)s1)N(C(C)=O)c1ccccc1-2` (configuration not stated) was inactive: -14.2%.
Turning to `Cc1c(Cl)cccc1NC(=O)c1ccc2c(c1)CCN2S(=O)(=O)c1ccccc1`, the “activation” value was inactive: -8.43%.
The value for `O=C(Nc1nc2n(n1)C(c1ccc(F)cc1)C=C(c1ccccc1)N2)c1ccco1` (configuration not stated) was inactive: -5.66%.
As for `O=c1c(-c2cc(-c3ccccc3)nc3c2COc2ccc(Cl)cc2-3)coc2ccc(F)cc12`, the figure is inactive: -10.7%; as for `CSc1ccc(CCNC(=O)Cn2ccc3cc(S(=O)(=O)N4CCCCCC4)ccc32)cc1`, inactive: -4.61%.
The value for `Cc1c(C(=O)Nc2ccc(C(=O)O)cc2)nnn1-c1ccccc1` was inactive: -8.72%; that for `Cc1ccc(CN2CCCN(CC(=O)Nc3ccc(C)cc3C)S2(=O)=O)cc1` was inactive: -12%.
As for `COC(=O)c1c(NC(=O)c2nc(SCc3ccc(F)cc3)ncc2Cl)sc2c1CCCC2`, the “activation” value is inactive: -6.19%.
As to `Cn1nnnc1SCCCNCc1cc(Cl)ccc1OCc1ccc(F)cc1`, the “activation” value is inactive: -30.3%.
Regarding `CCOc1ccccc1-c1noc(CSc2nnc(-c3ccccc3)n2-c2ccc(F)cc2)n1`, the “activation” value is inactive: -19.9%.
The value for `Cc1nn2c(=O)cc(COC(=O)Cc3ccccc3)nc2s1` was inactive: -24.8%.
Regarding `Nc1c(C(=O)Nc2ccc(OC(F)(F)F)cc2)sc2nc(-c3ccncc3)ccc12`, the “activation” value is inactive: -18.7%.
As for `COc1ccc(CNC(=O)C2CCCN(S(=O)(=O)c3cccc4nsnc34)C2)cc1` (configuration not stated), the figure is inactive: -14.8%.
The value for `Cc1ccc(CCNC(=O)c2ccc3c(Cl)c4c(nc3c2)CCCC4)cc1` was inactive: -23.1%.
With `CCCC(=O)Nc1ccccc1OCc1cc(=O)n2cc(C)ccc2n1`, the “activation” value is inactive: -6.92%.
As for `COc1ccccc1CNC(=O)c1ccc2nc(N3CCCCC3)sc2c1`, the figure is inactive: -6.35%; as for `Cc1ccc(C)c(N2CCN(c3c(CN4CCCC4)c(=O)oc4ccccc34)CC2)c1`, inactive: -8.94%.
As for `COc1ccc(NC(=O)CN2C(=O)COc3ccc(S(=O)(=O)N4CCCCCC4)cc32)cc1`, the figure is inactive: -19.8%.
On to `CCNC(=O)/C=C/c1cccc(Br)c1`, for which the “activation” value is inactive: -8.62%.
As for `CCC1CN(C(=O)N2CCC(C(=O)Nc3ccccc3F)CC2)c2ccccc2O1` (configuration not stated), the figure is inactive: -4.99%.
The value for `CC(C)NCCCC1(C(N)=O)c2ccccc2-c2ccccc21` was inactive: -13%.
For the molecule `Cc1ccc(-n2c(=O)cc(N3CCN(c4ccccc4Cl)CC3)[nH]c2=O)cc1`, the “activation” value is inactive: -4.01%.
The value for `O=C(Nc1cccc(Cl)c1Cl)c1cc(S(=O)(=O)NCc2ccc3c(c2)OCO3)ccc1F` was inactive: -5.89%; that for `CCOC(=O)c1ccc(N2C(=O)c3n[nH]c(-c4ccco4)c3C2c2ccc(C)cc2)cc1` (configuration not stated) was inactive: -10.4%.
The value for `Cc1nn(S(=O)(=O)c2ccc(Br)cc2)c(C)c1S(=O)(=O)N1CCCCCC1` was inactive: -10.7%; that for `Cc1cc(C)cc(NC(=O)CCS(=O)(=O)c2cccc3nsnc23)c1` was inactive: -6.99%.
Consider `COc1ccc(CC(=O)N2CCc3cc(OC)c(OC)cc3C2COc2cc(C)cc(C)c2)cc1OC` (configuration not stated), for which the “activation” value is inactive: -34.1%.
As for `COc1cccc(Cn2c(Oc3cc(C)cc(C)c3)nc3c2c(=O)n(C)c(=O)n3C)c1`, the figure is inactive: -13.9%.
As for `CCc1ccc(S(=O)(=O)N(C(=O)c2ccncc2)c2ccc3oc(C)c(C(=O)OC)c3c2)cc1`, the figure is inactive: -17%; as for `COc1cccc(NC(=O)C(=O)NCC(c2ccc3c(c2)OCO3)N2CCN(C)CC2)c1` (configuration not stated), inactive: -27.7%; as for `CCc1ccc(N(CC)C(=O)c2cc3c(=O)oc4ccc(C)cc4c3s2)cc1`, inactive: -16.9%.
The value for `Cc1cccc(NC(=O)CSc2ccc(-c3ccccn3)nn2)c1` was inactive: -2.4%; that for `Cc1cccc(C)c1Nc1nn2c(=O)c3cc4c(cc3nc2s1)OCO4` was inactive: -7.06%.
Regarding `CC(=O)c1ccc(NS(=O)(=O)c2cccc(S(=O)(=O)c3ccc(Cl)cc3)c2)cc1`, the “activation” value is inactive: -30.1%.
The value for `CCOc1ccc(CCNC(=O)CN2CCN(Cc3ccc(Cl)cc3)C2=O)cc1OCC` was inactive: -9.22%; that for `COc1ccc2oc(=O)c(C(=O)NCCc3c(C)[nH]c4ccc(F)cc34)cc2c1` was inactive: -5.02%; that for `COCCNc1oc(-c2ccccc2)nc1S(=O)(=O)c1ccc(Br)cc1` was inactive: 3.75%.
As for `COc1ccc(NC(=O)CCCSc2nc(-c3ccco3)cc(C(F)(F)F)n2)cc1OC`, the “activation” value is inactive: -17.5%.
For the molecule `CCCCN(CC)CCCNC(=O)c1cc2c(=O)[nH]c3ccccc3c2n1C`, the “activation” value is inactive: -14.8%.
As for `CC(=O)Nc1ccc(NS(=O)(=O)c2c(C(=O)N3CCC(C)CC3)c(C)n(C)c2C)cc1`, the figure is inactive: 0.394%; as for `COc1cccc(C(=O)Nc2cccc(OCc3cc(=O)n4c5c(sc4n3)CCCC5)c2)c1`, inactive: 0.999%.
The value for `COc1cccc(-c2nc(S(=O)(=O)c3ccc(Cl)cc3)c(NCc3ccccc3)o2)c1` was inactive: -11.1%; that for `CCc1ccc(-c2cn3c(n2)sc2cc(C(=O)NC4CCCCC4)ccc23)cc1` was inactive: -14.4%.
Turning to `COc1ccc2sc(N(Cc3cccnc3)C(=O)c3ccc4c(c3)OCCO4)nc2c1`, the “activation” value is inactive: -39.9%.
As for `COc1ccc(OC)c(NC(=O)c2c(NCc3sccc3C)sc3c2CCCCC3)c1`, the figure is inactive: -9.69%; as for `COc1ccc2c(c1)-c1nc(NC(=O)c3ccc(OC)c(Br)c3)sc1CC2`, inactive: -4.12%.

The values above are taken from PubChem BioAssay AID1159614 (National Center for Advancing Translational Sciences (NCATS), 2016).
